Results published in the supplement of paper PMC3334620.
Whole data set: some 33,000 sequences, median “E-score (-0.5 to 0.5)” near -0.043, cut for the highest 2% near 0.37. The list shows a part of the results.

Molecular target: T1, Upc2 (UniProt Q12151)
T1 sequence: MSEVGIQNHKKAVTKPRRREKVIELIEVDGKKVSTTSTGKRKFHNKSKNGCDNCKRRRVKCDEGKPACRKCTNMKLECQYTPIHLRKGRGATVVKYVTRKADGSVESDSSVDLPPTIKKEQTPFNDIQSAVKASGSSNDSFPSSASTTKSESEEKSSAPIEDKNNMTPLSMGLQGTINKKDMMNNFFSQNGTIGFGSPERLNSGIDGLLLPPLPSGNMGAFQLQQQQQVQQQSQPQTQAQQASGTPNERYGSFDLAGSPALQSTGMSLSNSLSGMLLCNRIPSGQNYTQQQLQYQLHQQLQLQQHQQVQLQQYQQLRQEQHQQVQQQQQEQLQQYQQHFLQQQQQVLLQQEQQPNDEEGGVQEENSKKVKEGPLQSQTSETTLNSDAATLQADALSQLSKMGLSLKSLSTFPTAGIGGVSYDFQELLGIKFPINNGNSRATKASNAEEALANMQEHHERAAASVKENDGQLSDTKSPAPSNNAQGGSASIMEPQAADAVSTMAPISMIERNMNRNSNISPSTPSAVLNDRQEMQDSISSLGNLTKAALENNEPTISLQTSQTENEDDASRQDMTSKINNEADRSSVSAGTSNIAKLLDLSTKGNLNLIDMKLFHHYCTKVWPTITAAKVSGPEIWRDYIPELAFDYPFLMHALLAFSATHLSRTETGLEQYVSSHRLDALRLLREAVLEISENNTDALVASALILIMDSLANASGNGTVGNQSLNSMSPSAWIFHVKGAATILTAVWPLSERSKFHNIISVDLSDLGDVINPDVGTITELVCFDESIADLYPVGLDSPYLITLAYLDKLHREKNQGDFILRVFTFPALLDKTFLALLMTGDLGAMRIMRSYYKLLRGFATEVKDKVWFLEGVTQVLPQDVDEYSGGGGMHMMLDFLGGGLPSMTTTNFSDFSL
Assay: PBM E-score (8-mer binding enrichment) (E-score (-0.5 to 0.5)); higher = stronger / more preferred TF binding; most listed sequences are background and not binding sites
Settings: protein concentration: 200 nM; construct: GST-full length
Procedure, shortened: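 For each ungapped eight-base word taken together with its reverse complement, the Universal PBM Analysis Suite assigned an E-score. Binding data came from GST-tagged yeast transcription factors, applied at about 100-200 nM, on universal all-10-mer Agilent arrays made double-stranded by primer extension. Fluorescent anti-GST marked bound protein, and scans were normalised with masliner.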

| Sequence | PBM E-score |
| --- | --- |
| TCGTACGA | 0.471 |
| ATATAATC | -0.158 |
| AACCACGG | -0.164 |
| AGGTCACT | -0.113 |
| ACGGTAGG | 0.0252 |
| AGCGAACC | 0.176 |
| CTGGGTAC | 0.14 |
| AGTGGAAC | -0.0614 |
| CAGGCTTA | -0.316 |
| TCCGTAGA | -0.0263 |
| TAAACCTA | 0.104 |
| CTCATCAA | -0.111 |
| CGATAGCA | 0.122 |
| ATGATCTA | -0.00479 |
| AAACCGTA | 0.259 |
| AATCATCC | -0.0451 |
| ATTCGCTA | 0.141 |
| AGGGCGCC | -0.168 |
| CATACGGC | 0.383 |
| GATATAGA | -0.0283 |
| ACCAGTAC | 0.154 |
| ACTAGGCT | -0.00062 |
| CACGCACC | -0.19 |
| AGGCTAGA | -0.056 |
| CCTTCTAG | -0.185 |

| Sequence | PBM E-score |
| --- | --- |
| CTGTCTGC | -0.204 |
| CTCAACCA | -0.267 |
| CGACCCCA | -0.0943 |
| ACGGTTGG | 0.0991 |
| AGTTAAGC | 0.00193 |
| ACTAACAC | 0.087 |
| AAGTCTCA | -0.265 |
| CTAATGAA | 0.0204 |
| AAAGATAG | 0.0184 |
| AACGCATC | 0.14 |
| CCTAATCG | 0.237 |
| CTTTTGAA | -0.0826 |
| CTTGGAGA | -0.101 |
| CGCGAAAA | 0.197 |
| CGGTGCTC | 0.0465 |
| ATAATACG | 0.309 |
| AACGGAAA | 0.216 |
| CAGGCCCG | -0.233 |
| CACTCACG | 0.00181 |
| ACATACTG | 0.0774 |
| CTGATACC | -0.106 |
| AGAAATCG | -0.0457 |
| GACTCATA | 0.00139 |
| CGGCGCTC | 0.16 |
| TCGCGTAA | 0.303 |

| Sequence | PBM E-score |
| --- | --- |
| AGTCTCGA | 0.0343 |
| CTTCTCCC | -0.0944 |
| GTCCAGCA | -0.221 |
| GGCACAAA | -0.0691 |
| GACAAAGA | 0.0147 |
| CAGTGTAA | -0.0228 |
| CACGAGCG | 0.17 |
| GGACCCAC | -0.11 |
| AACCATTA | 0.00366 |
| AGGAGCTC | 0.108 |
| CCGGTCTA | -0.122 |
| GAGGATGA | -0.0375 |
| AGACCATC | -0.199 |
| CAGGTCTA | -0.172 |
| CACTCCTC | 0.0441 |
| CTACGACC | 0.364 |
| AGCTCCGG | -0.202 |
| ATATTATA | 0.205 |
| ATACACCG | 0.109 |
| ACGGAAGA | 0.16 |
| CTGGTCAA | -0.17 |
| CTAGACCA | -0.217 |
| CGGCCTGA | -0.236 |
| AAGCGGCC | -0.116 |
| ATTTAGAA | -0.14 |

| Sequence | PBM E-score |
| --- | --- |
| CCGTACCG | 0.389 |
| CCCTATGC | -0.22 |
| AGAAAGCG | 0.0648 |
| ACTTCGGA | 0.0617 |
| CCTAAGGA | -0.0656 |
| AGGCGACT | -0.217 |
| CAACACCG | -0.22 |
| CTATAGTC | 0.0621 |
| ACTTACAA | 0.14 |
| AAGAGTAA | 0.009 |
| ATTCCTCG | 0.2 |
| AACCGTAT | 0.375 |
| ACTCCCCA | -0.227 |
| AGTGTCTA | 0.0534 |
| CCGCCCCA | -0.0721 |
| CGTAATCA | 0.197 |
| CTTACTCC | 0.0123 |
| ATGGGTAA | -0.116 |
| GTGGCAAC | -0.113 |
| GAGATTGC | -0.163 |
| AGCGTAGC | 0.16 |
| GAGTATTA | -0.0722 |
| AATAGCGG | -0.0471 |
| CCTTCGTC | 0.00619 |
| CTCCGCCC | -0.316 |

| Sequence | PBM E-score |
| --- | --- |
| GCAGAGTA | 0.0783 |
| CAAACGGC | 0.32 |
| ATTGAAGG | -0.152 |
| CCTGTGAC | -0.255 |
| AAGCTGAC | -0.124 |
| CCGGCATC | -0.183 |
| AAATGCCG | 0.0855 |
| CCGAACCA | -0.127 |
| TCGGAGCA | -0.156 |
| AGCCCGCA | -0.231 |
| ACCTGAGA | -0.081 |
| CCCTCTAC | -0.0506 |
| AATGATTC | 0.096 |
| ACCGACCC | 0.114 |
| GAGCCCGA | -0.0298 |
| ACCGCAGT | -0.0959 |
| AAAAGGAC | 0.0288 |
| AACCACTG | -0.132 |
| CTTACAAG | -0.132 |
| AAATTTGA | 0.14 |
| ACATACCT | -0.261 |
| GCGATTCC | -0.06 |
| GTACTGAC | 0.0353 |
| CGATCTTC | 0.11 |
| AACTACGG | -0.0928 |

| Sequence | PBM E-score |
| --- | --- |
| CCCCGTTA | 0.0309 |
| AACGCTCT | -0.0502 |
| AGGAGGTC | -0.226 |
| CAGCCCAG | -0.241 |
| CGGATCCG | 0.128 |
| GGCCCTAA | -0.205 |
| TATAGGGA | 0.0831 |
| CAGAGTCA | -0.175 |
| TATTCCCA | -0.0702 |
| AGATGGTC | -0.225 |
| GAGACTAA | 0.0507 |
| CGGGCAGC | -0.0543 |
| CACCCGCG | -0.107 |
| AGCCGTTA | 0.171 |
| GCGGGTCA | -0.0247 |
| CTAGTCAG | -0.0433 |
| GCCGCGGA | -0.169 |
| GCAGCCGC | -0.122 |
| CTAAATTA | 0.0394 |
| GGTCGCCA | -0.188 |
| GCTTGGAC | -0.259 |
| AGTAGCGC | 0.0189 |
| AAAACTTG | 0.00797 |
| CACGGGAC | -0.074 |
| GCCCAAGC | -0.184 |

| Sequence | PBM E-score |
| --- | --- |
| AATGCGAC | 0.214 |
| CTCCCTTA | -0.197 |
| CCCATGTC | -0.212 |
| CCATCCTA | 0.108 |
| CGGGCCAC | -0.201 |
| TAGAATCA | 0.0403 |
| ATTAACCC | -0.00395 |
| ACTAGTGA | -0.178 |
| CTAAGCAC | -0.145 |
| GACTAGGC | 0.0484 |
| CCCAATGA | -0.32 |
| AAGGTGCT | -0.233 |
| TCGAAAGA | -0.0485 |
| GGATCTAC | -0.211 |
| ATACAAGA | -0.0788 |
| AACTGACC | -0.252 |
| CGATGTAA | 0.211 |
| CTCCATCC | -0.183 |
| GGTATGGA | -0.146 |
| AACAACCA | 0.0154 |
| ACGCGTAG | 0.148 |
| CATCACGG | 0.0314 |
